Where two headings read alike, the source gives them in different places.

In test [1] the target is T1, human 4-1BB (CD137) on cells (human, UniProt Q07011 24-255).
T1 construct: whole, on cells; also called 4-1BB+CD8+; 4-1BB+CD4+
Put plainly: flow cytometry on activated human PBMC, 4-1BB+ CD3+CD4+ T cells. For orientation: A flow cytometer gives signals particle by particle.

Test [2] has as its target T2, human fibroblast activation protein (FAP) on cells (human, UniProt Q12884 1-760).
T2 construct: also called human FAP; huFAP
Description: flow cytometry on NIH/3T3-huFAP clone 39 cells.

Test [3] has as its target T2, human fibroblast activation protein …. Put plainly: flow cytometry on FAP+ MV-3 cells.
The target of test [4] is T1, human 4-1BB (CD137) on cells. Description: flow cytometry on activated human PBMC, 4-1BB+ CD3+CD8+ T cells.
Test [5] shares this target. Put plainly: flow cytometry on activated human PBMC, 4-1BB+ CD4+ T cells.
The target is the same in test [6]. Put plainly: flow cytometry on activated human PBMC, 4-1BB+ CD8+ T cells.
Test [7] deals with T3, human NA3B3A2-avi-His (human).
T3 construct: hybrid antigen with avi and His tags; also called hu NA3B3A2
T3 chain: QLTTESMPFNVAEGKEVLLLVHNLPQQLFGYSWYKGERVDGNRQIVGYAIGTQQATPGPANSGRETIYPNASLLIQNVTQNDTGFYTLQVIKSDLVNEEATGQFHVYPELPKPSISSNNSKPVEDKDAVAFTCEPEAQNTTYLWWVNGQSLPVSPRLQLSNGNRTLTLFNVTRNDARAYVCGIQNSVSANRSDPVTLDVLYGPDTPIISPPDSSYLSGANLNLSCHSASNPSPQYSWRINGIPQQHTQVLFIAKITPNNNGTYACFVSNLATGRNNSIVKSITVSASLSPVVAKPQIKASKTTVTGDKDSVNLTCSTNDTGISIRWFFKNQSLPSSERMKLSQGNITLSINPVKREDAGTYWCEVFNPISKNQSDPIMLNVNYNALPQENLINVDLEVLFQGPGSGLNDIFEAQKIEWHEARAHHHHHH
Description: SPR (Biacore T200), simultaneous binding: construct held on immobilized human 4-1BB Fc(kih), human NA3B3A2-avi-His injected as analyte 2 at 500 nM.

The target of test [8] is T1, human 4-1BB (CD137) on cells. Description: cell-based or functional assay.
Test [9] has as its target T3, human NA3B3A2-avi-His. Put plainly: SPR (Biacore T200), simultaneous binding: construct held on immobilized human 4-1BB Fc(kih), human NA3B3A2-avi-His injected as analyte 2 at 500 nM. A general note: Surface plasmon resonance follows binding to a sensor surface in real time, without labels.

B1: bivalent FAP(28H1)-targeted human 4-1BB ligand (71-254) trimer-containing Fc (kih) fusion molecule Construct 1.5 (Fc fusion)
heavy 1: EVQLLESGGGLVQPGGSLRLSCAASGFTFSSHAMSWVRQAPGKGLEWVSAIWASGEQYYADSVKGRFTISRDNSKNTLYLQMNSLRAEDTAVYYCAKGWLGNFDYWGQGTLVTVSSASTKGPSVFPLAPSSKSTSGGTAALGCLVKDYFPEPVTVSWNSGALTSGVHTFPAVLQSSGLYSLSSVVTVPSSSLGTQTYICNVNHKPSNTKVDKKVEPKSCDKTHTCPPCPAPEAAGGPSVFLFPPKPKDTLMISRTPEVTCVVVDVSHEDPEVKFNWYVDGVEVHNAKTKPREEQYNSTYRVVSVLTVLHQDWLNGKEYKCKVSNKALGAPIEKTISKAKGQPREPQVCTLPPSRDELTKNQVSLSCAVKGFYPSDIAVEWESNGQPENNYKTTPPVLDSDGSFFLVSKLTVDKSRWQQGNVFSCSVMHEALHNHYTQKSLSLSPGGGGGSGGGGSREGPELSPDDPAGLLDLRQGMFAQLVAQNVLLIDGPLSWYSDPGLAGVSLTGGLSYKEDTKELVVAKAGVYYVFFQLELRRVVAGEGSGSVSLALHLQPLRSAAGAAALALTVDLPPASSEARNSAFGFQGRLLHLSAGQRLGVHLHTEARARHAWQLTQGATVLGLFRVTPEIPAGLPSPRSEGGGGSGGGGSREGPELSPDDPAGLLDLRQGMFAQLVAQNVLLIDGPLSWYSDPGLAGVSLTGGLSYKEDTKELVVAKAGVYYVFFQLELRRVVAGEGSGSVSLALHLQPLRSAAGAAALALTVDLPPASSEARNSAFGFQGRLLHLSAGQRLGVHLHTEARARHAWQLTQGATVLGLFRVTPEIPAGLPSPRSE
heavy 2: EVQLLESGGGLVQPGGSLRLSCAASGFTFSSHAMSWVRQAPGKGLEWVSAIWASGEQYYADSVKGRFTISRDNSKNTLYLQMNSLRAEDTAVYYCAKGWLGNFDYWGQGTLVTVSSASTKGPSVFPLAPSSKSTSGGTAALGCLVKDYFPEPVTVSWNSGALTSGVHTFPAVLQSSGLYSLSSVVTVPSSSLGTQTYICNVNHKPSNTKVDKKV[no letters for human IgG1 Fc with changes]GGGGSGGGGSREGPELSPDDPAGLLDLRQGMFAQLVAQNVLLIDGPLSWYSDPGLAGVSLTGGLSYKEDTKELVVAKAGVYYVFFQLELRRVVAGEGSGSVSLALHLQPLRSAAGAAALALTVDLPPASSEARNSAFGFQGRLLHLSAGQRLGVHLHTEARARHAWQLTQGATVLGLFRVTPEIPAGLPSPRSE
light: EIVLTQSPGTLSLSPGERATLSCRASQSVSRSYLAWYQQKPGQAPRLLIIGASTRATGIPDRFSGSGSGTDFTLTISRLEPEDFAVYYCQQGQVIPPTFGQGTKVEIKRTVAAPSVFIFPPSDEQLKSGTASVVCLLNNFYPREAKVQWKVDNALQSGNSQESVTEQDSKDSTYSLSSTLTLSKADYEKHKVYACEVTHQGLSSPVTKSFNRGEC
notes: two anti-FAP Fabs; dimeric and monomeric 4-1BBL at the C-termini of hole and knob heavy chains
In general, EC50 refers to the concentration at which the effect is half-maximal. A higher EC50 goes with a need for much substance. On to B1, for which the EC50 is 2670 pM in test [1], 10100 pM in test [2], 530 pM in test [3] and 170 pM in test [4].

B2: monovalent CEA(T84.66-LCHA) targeted split trimeric 4-1BB ligand (71-248) Fc (kih) fusion containing CH-CL cross with charged residues (construct 5.4) (Fc fusion)
chain 1: REGPELSPDDPAGLLDLRQGMFAQLVAQNVLLIDGPLSWYSDPGLAGVSLTGGLSYKEDTKELVVAKAGVYYVFFQLELRRVVAGEGSGSVSLALHLQPLRSAAGAAALALTVDLPPASSEARNSAFGFQGRLLHLSAGQRLGVHLHTEARARHAWQLTQGATVLGLFRVTPEIPAGLGGGGSGGGGSREGPELSPDDPAGLLDLRQGMFAQLVAQNVLLIDGPLSWYSDPGLAGVSLTGGLSYKEDTKELVVAKAGVYYVFFQLELRRVVAGEGSGSVSLALHLQPLRSAAGAAALALTVDLPPASSEARNSAFGFQGRLLHLSAGQRLGVHLHTEARARHAWQLTQGATVLGLFRVTPEIPAGLGGGGSGGGGSRTVAAPSVFIFPPSDRKLKSGTASVVCLLNNFYPREAKVQWKVDNALQSGNSQESVTEQDSKDSTYSLSSTLTLSKADYEKHKVYACEVTHQGLSSPVTKSFNRGE[no letters for human IgG1 Fc with changes]
chain 2: REGPELSPDDPAGLLDLRQGMFAQLVAQNVLLIDGPLSWYSDPGLAGVSLTGGLSYKEDTKELVVAKAGVYYVFFQLELRRVVAGEGSGSVSLALHLQPLRSAAGAAALALTVDLPPASSEARNSAFGFQGRLLHLSAGQRLGVHLHTEARARHAWQLTQGATVLGLFRVTPEIPAGLGGGGSGGGGSASTKGPSVFPLAPSSKSTSGGTAALGCLVEDYFPEPVTVSWNSGALTSGVHTFPAVLQSSGLYSLSSVVTVPSSSLGTQTYICNVNHKPSNTKVDEKVEPKSC
heavy: QVQLVQSGAEVKKPGSSVKVSCKASGFNIKDTYMHWVRQAPGQGLEWMGRIDPANGNSKYVPKFQGRVTITADTSTSTAYMELSSLRSEDTAVYYCAPFGYYVSDYAMAYWGQGTLVTVSSASTKGPSVFPLAPSSKSTSGGTAALGCLVKDYFPEPVTVSWNSGALTSGVHTFPAVLQSSGLYSLSSVVTVPSSSLGTQTYICNVNHKPSNTKVDKKVEPKSCDKTHTCPPCPAPEAAGGPSVFLFPPKPKDTLMISRTPEVTCVVVDVSHEDPEVKFNWYVDGVEVHNAKTKPREEQYNSTYRVVSVLTVLHQDWLNGKEYKCKVSNKALGAPIEKTISKAKGQPREPQVCTLPPSRDELTKNQVSLSCAVKGFYPSDIAVEWESNGQPENNYKTTPPVLDSDGSFFLVSKLTVDKSRWQQGNVFSCSVMHEALHNHYTQKSLSLSPGK
light: EIVLTQSPATLSLSPGERATLSCRAGESVDIFGVGFLHWYQQKPGQAPRLLIYRASNRATGIPARFSGSGSGTDFTLTISSLEPEDFAVYYCQQTNEDPYTFGQGTKLEIKRTVAAPSVFIFPPSDEQLKSGTASVVCLLNNFYPREAKVQWKVDNALQSGNSQESVTEQDSKDSTYSLSSTLTLSKADYEKHKVYACEVTHQGLSSPVTKSFNRGEC
For B2, the EC50 in test [5] is 350 pM. The same molecule had an EC50 in test [6] of 130 pM. Besides, in the test with human NA3B3A2-avi-His [7], the binding result is “binds”. Besides, in [8], the “EC50 [nM] of NF-kB-luciferase activation, human 4-1BB HeLa reporter cells with MKN-45 cells” value was determined as 0.34 nM and the “EC50 [nM] of NF-kB-luciferase activation, human 4-1BB HeLa reporter cells, no tumor cells” value was determined as 3.1 nM.

B3: bivalent CEA(T84.66-LCHA) targeted split trimeric 4-1BB ligand (71-248) Fc (kih) fusion (construct 5.6) (Fc fusion)
heavy 1: QVQLVQSGAEVKKPGSSVKVSCKASGFNIKDTYMHWVRQAPGQGLEWMGRIDPANGNSKYVPKFQGRVTITADTSTSTAYMELSSLRSEDTAVYYCAPFGYYVSDYAMAYWGQGTLVTVSSASTKGPSVFPLAPSSKSTSGGTAALGCLVKDYFPEPVTVSWNSGALTSGVHTFPAVLQSSGLYSLSSVVTVPSSSLGTQTYICNVNHKPSNTKVDKKVEPKSCDKTHTCPPCPAPEAAGGPSVFLFPPKPKDTLMISRTPEVTCVVVDVSHEDPEVKFNWYVDGVEVHNAKTKPREEQYNSTYRVVSVLTVLHQDWLNGKEYKCKVSNKALGAPIEKTISKAKGQPREPQVCTLPPSRDELTKNQVSLSCAVKGFYPSDIAVEWESNGQPENNYKTTPPVLDSDGSFFLVSKLTVDKSRWQQGNVFSCSVMHEALHNHYTQKSLSLSPGGGGGSGGGGSREGPELSPDDPAGLLDLRQGMFAQLVAQNVLLIDGPLSWYSDPGLAGVSLTGGLSYKEDTKELVVAKAGVYYVFFQLELRRVVAGEGSGSVSLALHLQPLRSAAGAAALALTVDLPPASSEARNSAFGFQGRLLHLSAGQRLGVHLHTEARARHAWQLTQGATVLGLFRVTPEIPAGLGGGGSGGGGSREGPELSPDDPAGLLDLRQGMFAQLVAQNVLLIDGPLSWYSDPGLAGVSLTGGLSYKEDTKELVVAKAGVYYVFFQLELRRVVAGEGSGSVSLALHLQPLRSAAGAAALALTVDLPPASSEARNSAFGFQGRLLHLSAGQRLGVHLHTEARARHAWQLTQGATVLGLFRVTPEIPAGL
heavy 2: QVQLVQSGAEVKKPGSSVKVSCKASGFNIKDTYMHWVRQAPGQGLEWMGRIDPANGNSKYVPKFQGRVTITADTSTSTAYMELSSLRSEDTAVYYCAPFGYYVSDYAMAYWGQGTLVTVSSASTKGPSVFPLAPSSKSTSGGTAALGCLVKDYFPEPVTVSWNSGALTSGVHTFPAVLQSSGLYSLSSVVTVPSSSLGTQTYICNVNHKPSNTKVDKKV[no letters for human IgG1 Fc with changes]GGGGSGGGGSREGPELSPDDPAGLLDLRQGMFAQLVAQNVLLIDGPLSWYSDPGLAGVSLTGGLSYKEDTKELVVAKAGVYYVFFQLELRRVVAGEGSGSVSLALHLQPLRSAAGAAALALTVDLPPASSEARNSAFGFQGRLLHLSAGQRLGVHLHTEARARHAWQLTQGATVLGLFRVTPEIPAGL
light: EIVLTQSPATLSLSPGERATLSCRAGESVDIFGVGFLHWYQQKPGQAPRLLIYRASNRATGIPARFSGSGSGTDFTLTISSLEPEDFAVYYCQQTNEDPYTFGQGTKLEIKRTVAAPSVFIFPPSDEQLKSGTASVVCLLNNFYPREAKVQWKVDNALQSGNSQESVTEQDSKDSTYSLSSTLTLSKADYEKHKVYACEVTHQGLSSPVTKSFNRGEC
On to B3, for which the EC50 in test [5] was 340 pM; in [6], 60 pM. Also, the binding result with human NA3B3A2-avi-His [9] is “binds”. Further, in test [8], the “EC50 [nM] of NF-kB-luciferase activation, human 4-1BB HeLa reporter cells with MKN-45 cells” value stood at 0.21 nM. Further, the “EC50 [nM] of NF-kB-luciferase activation, human 4-1BB HeLa reporter cells, no tumor cells” value in [8] turned out to be 2.05 nM.

Values taken from US20250101135A1 (Hoffmann-La Roche, published 2025).
